Assay results published in PubChem BioAssay AID686979 (National Center for Advancing Translational Sciences (NCATS), 2013).
The whole screen tested about 420,000 compounds, of which about 50,000 (12%) were called active. This list was built around the results that the source calls inconclusive (neither active nor inactive); the mix of calls is not that of the screen. The call rests on the fitted dose curve; in most records, active means well fitted inhibition curve with a large enough effect; inconclusive means small, poorly fitted or top-dose-only effect; inactive means flat fitted curve, though single readings scatter. No potency is given beside an inconclusive call; the fits are too rough.

test: qHTS for Inhibitors of human tyrosyl-DNA phosphodiesterase 1 (TDP1): qHTS in cells in presence of CPT; settings: chicken DT40 Tdp1-/-;hTDP1 cells + 20 nM CPT, ATP luminescence, 48 h; activity change, negative = growth inhibition: at 46.2 µM (top of the series) unless noted; further: nearly all actives have a fitted effect of over 55% in size
How it was run: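 Chicken DT40 Tdp1-/- cells complemented with human TDP1, 400 cells/well, exposed to compounds plus 20 nM camptothecin for at least 48 h at 37 C; viability read as ATP content by CellTiter-Glo luminescence.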
On the % scale 0 is the no-effect control and ±100 the full control effect; potency means the concentration at half of the fitted maximal effect; tags describe the fitted curve by direction and shape.

Compound	Potency	activity change, negative = growth inhibition
CCN(CC(=O)Nc1cc(Cl)ccc1C)C(=O)c1cc(S(=O)(=O)N2CCCCCC2)ccc1OC	inconclusive [inhibitor, full curve, poor fit]	–
CC1CC(C)(C)Nc2ccc(N=O)cc21 (stereo not drawn)	active: 2.31 µM	–
CCOC(=O)c1c(NC(=O)C2CCN(S(=O)(=O)c3cccs3)CC2)sc(C)c1C	inconclusive [inhibitor, single point]	–
O=C1c2[nH]nc(-c3ccccc3O)c2C(c2cccc(O)c2)N1Cc1ccco1 (stereo not drawn)	inconclusive [inhibitor, single point]	–
CCCCOc1ccc(C(=O)Nc2cccc(C)n2)cc1	inconclusive [inhibitor, single point]	–
O=C(Cn1nc(Cc2ccncc2)c2ccccc2c1=O)N1CCc2ccccc2C1	inconclusive [inhibitor, single point]	–
CCN(CC(=O)Nc1cccc(S(=O)(=O)N2CCOCC2)c1)Cc1ccccc1	inconclusive [inhibitor, single point]	–
COc1ccc(OCCn2cc(C=O)c3ccccc32)cc1	inconclusive [inhibitor, partial curve]	–
S=C(NCCc1ccccc1)N1CCCC1	inactive	–
O=C(COC(=O)CCC(=O)c1cccs1)Nc1cccc(F)c1	inactive	–
CN(Cc1ccc(Cl)s1)C(=O)CCl	active: 3.26 µM	–
Clc1ccc(CCNC(c2ccc(Cl)cc2)c2nnc(-c3ccccc3)o2)cc1 (stereo not drawn)	inconclusive [inhibitor, single point]	–
COc1ccc(N2CCN(C(=O)C(C)n3nc(C)c4sc5ccccc5c4c3=O)CC2)cc1 (stereo not drawn)	inconclusive [inhibitor, single point]	–
CCc1ccc(NC(=O)Cn2nc(SC)c(S(=O)(=O)c3ccc(OC)cc3)c2N)cc1	inactive	–
CSCCC(NS(=O)(=O)c1ccc(C)cc1)C(=O)NCCc1c[nH]c2ccccc12 (stereo not drawn)	inconclusive [inhibitor, single point]	–
O=C(CN1C(=O)c2ccccc2C1=O)Nc1ccc(S(=O)(=O)NCC2CCCO2)cc1 (stereo not drawn)	inactive	–
COCCCNC(=O)CCc1c(C)nc2c(c(C)nn2-c2ccc(C)cc2)c1C	inconclusive [inhibitor, single point]	–
O=C(NC(=S)Nc1cccc(NC(=O)c2ccccc2)c1)c1cccc([N+](=O)[O-])c1	inconclusive [inhibitor, single point]	–
O=C(Cn1cc([N+](=O)[O-])cn1)Nc1cccnc1	inactive	–
C[C@@H]1CN([C@@H](C)CO)C(=O)c2cccc(NC(=O)C3CCCCC3)c2O[C@@H]1CN(C)C(=O)NC1CCCCC1	inconclusive [inhibitor, single point]	–
CCc1ccc(NC(=O)Cn2c(=O)n(CCCC(=O)NCc3ccc4c(c3)OCO4)c(=O)c3ccccc32)cc1	active: 20.6 µM	–
COc1ccc(C)c2sc(NC(=O)CCS(=O)(=O)c3ccccc3)nc12	active: 23.1 µM	–
Cc1c(C(=O)N2CCOCC2)sc(NC(=O)Cc2ccccc2)c1C#N	inactive	–
CC(=O)NC(C)(c1ccccc1)c1nc(-c2cccc3cccnc23)cs1 (stereo not drawn)	active: 20.6 µM	–

Compound	Potency	activity change, negative = growth inhibition
Cc1ccc(NC(=O)CN2C(=O)N/C(=C/c3ccc(C)s3)C2=O)cc1	inactive	–
COc1ccc(C(=O)NCc2nnc(SCC(=O)Nc3nnc(C)s3)o2)cc1OC	inactive	–
O=C(NCC1CCCO1)C1CCN(S(=O)(=O)c2cc(Cl)ccc2Cl)CC1 (stereo not drawn)	inactive	–
COc1ccc(Cl)cc1C(=O)Nc1nc2ccccc2[nH]1	inconclusive [inhibitor, single point]	–
O=C(NC(=S)Nc1ccccc1)c1csnn1	inactive	–
C[C@H](CO)N1C[C@H](C)[C@@H](CN(C)C(=O)Nc2ccc3c(c2)OCO3)Oc2ccc(NC(=O)CCC(F)(F)F)cc2C1=O	inactive	–
O=C(CCCNC(=O)/C(=C\c1ccc(F)cc1)NC(=O)c1ccccc1)OCc1ccccc1	inactive	–
CNc1c(Cl)cc(/C=C2\C=Cc3ccccc32)cc1Cl	inactive	–
O=C(Cc1ccc(S(=O)(=O)N2CCOCC2)s1)N1CCN(S(=O)(=O)c2ccc(Cl)cc2)CC1	active: 23.1 µM	–
Cc1cc(NC(=O)CSc2n[nH]c(-c3ccccc3Br)n2)no1	–	inconclusive: -30.6% [inhibitor]
O=S(=O)(c1ccc(-c2cnc(C3CC3)o2)cc1)N1CCN(c2ccccc2F)CC1	–	inconclusive: -32.5% [inhibitor]
C=CCSC1=C(C#N)C(c2ccc(C(C)C)cc2)CC(=O)N1 (stereo not drawn)	inconclusive [inhibitor, single point]	–
COc1ccc(C(=O)CSc2nnc(CN3CCCCC3)n2-c2ccc(F)cc2)cc1	active: 20.6 µM	–
Cn1nc(-c2ccccc2)c(CSc2ccccc2Cl)c1Cl	inconclusive [inhibitor, partial curve, poor fit]	–
NC(COCc1ccccc1)c1csc(NC(=O)Nc2cccc(C(F)(F)F)c2)n1 (stereo not drawn)	active: 20.6 µM	–
CCCNC(=O)c1c(CSc2ccccc2)noc1C(=O)NCc1ccccc1	inconclusive [inhibitor, single point]	–
CCCc1nc(NCc2ccccn2)c2nnn(Cc3ccccc3F)c2n1	inconclusive [inhibitor, single point]	–
Cc1cccc(Nc2sc(C(=O)c3ccc(Cl)cc3)c(N)c2C(N)=O)c1	inactive	–
COc1ccccc1-c1nnc(SCC(=O)Nc2ccc(S(N)(=O)=O)cc2)n1N	inactive	–
CCOc1ccc(C2=CSC3=NCCN23)cc1Cl	inconclusive [inhibitor, single point]	–
O=C(N/N=C/c1ccc(Br)s1)c1c[nH]c2ccccc12	inconclusive [inhibitor, single point]	–
Cc1ccc(NS(=O)(=O)c2ccc(C(C)(C)C)cc2)cn1	inactive	–
NNC(=O)c1cccc(S(=O)(=O)Nc2cccc(C(F)(F)F)c2)c1	inactive	–
Cc1ccc2c(=O)cc(CSc3ncn[nH]3)[nH]c2c1C	inconclusive [inhibitor, partial curve]	–
